Reference: paper PMC4336329 (PLoS ONE, 2015)
About 14,000 (4.5%) of roughly 310,000 compounds showed an effect of 50% or more. Effects have a minus sign here. Some of the results follow.

Target: human ether-à-go-go-related gene (hERG) potassium channel (human, UniProt Q12809)
Test: primary screen, population patch clamp on CHO cells stably expressing hERG
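Note: peak tail current of the secondary pulse compared with the same well before compound.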

Sequence of human ether-à-go-go-related gene (hERG) potassium channel (Q12809 whole entry, looked up): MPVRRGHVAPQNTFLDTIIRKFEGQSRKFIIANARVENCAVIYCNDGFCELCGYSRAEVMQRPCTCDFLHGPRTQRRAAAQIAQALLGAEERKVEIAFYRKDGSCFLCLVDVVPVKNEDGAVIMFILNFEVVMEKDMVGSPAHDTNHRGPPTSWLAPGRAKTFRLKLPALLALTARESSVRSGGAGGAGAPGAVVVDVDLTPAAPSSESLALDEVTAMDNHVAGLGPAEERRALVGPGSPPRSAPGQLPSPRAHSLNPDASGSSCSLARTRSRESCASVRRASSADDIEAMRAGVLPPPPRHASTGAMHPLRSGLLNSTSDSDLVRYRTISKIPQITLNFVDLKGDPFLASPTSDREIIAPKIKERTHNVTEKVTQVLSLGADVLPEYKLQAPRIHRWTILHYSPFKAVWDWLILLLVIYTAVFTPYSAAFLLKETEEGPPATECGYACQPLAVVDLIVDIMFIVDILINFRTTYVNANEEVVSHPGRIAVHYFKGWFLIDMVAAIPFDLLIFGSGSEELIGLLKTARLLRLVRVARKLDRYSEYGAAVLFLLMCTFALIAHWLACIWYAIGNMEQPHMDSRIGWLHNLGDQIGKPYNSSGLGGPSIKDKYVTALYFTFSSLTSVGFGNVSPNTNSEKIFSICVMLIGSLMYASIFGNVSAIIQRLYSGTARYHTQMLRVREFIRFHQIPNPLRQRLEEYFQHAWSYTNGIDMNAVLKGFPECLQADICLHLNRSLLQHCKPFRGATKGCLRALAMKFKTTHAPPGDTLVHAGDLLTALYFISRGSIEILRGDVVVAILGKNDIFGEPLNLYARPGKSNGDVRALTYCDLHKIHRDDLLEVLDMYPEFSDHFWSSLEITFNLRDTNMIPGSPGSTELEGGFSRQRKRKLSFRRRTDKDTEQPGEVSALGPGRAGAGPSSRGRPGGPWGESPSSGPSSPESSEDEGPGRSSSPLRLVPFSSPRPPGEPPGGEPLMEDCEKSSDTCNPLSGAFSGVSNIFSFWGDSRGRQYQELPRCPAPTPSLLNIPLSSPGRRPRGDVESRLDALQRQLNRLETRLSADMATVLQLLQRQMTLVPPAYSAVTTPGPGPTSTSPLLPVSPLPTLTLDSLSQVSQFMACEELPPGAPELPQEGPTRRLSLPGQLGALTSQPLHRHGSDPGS

Row | Compound | hERG current change (%, negative = inhibition) at 10uM
1 | Cc1cc(C(F)(F)F)n2nc(-c3cccs3)cc2n1 | 14.4%
2 | CCN(CC)S(=O)(=O)c1cc(C(=O)NCCN2CCOCC2)ccc1Cl.Cl | 2.59%
3 | CCOc1ccccc1N1CCN(C(=O)NCc2ccc(C)cc2)CC1 | 21.7%
4 | CCOC(=O)C1=C(c2ccccc2)N=c2s/c(=C\c3ccc(O)cc3)c(=O)n2C1c1cccs1 (stereo not shown) | -2.03%
5 | CCC(c1nnnn1CS(=O)(=O)c1ccc(C)cc1)N1CCC(C(N)=O)CC1.Cl (stereo not shown) | -12%
6 | CCOc1ccc(CNC(=O)C2CCN(c3nnc(C)c4c(C)n(-c5ccc(C)cc5)nc34)CC2)cc1 | -0.254%
7 | Clc1ncccc1-c1nc2ccccc2s1 | 24.8%
8 | CN(/C=C1/C(=O)CNC1=O)CCO | 15.9%
9 | O=C(COC(=O)COc1ccc(Cl)cc1)Nc1ccc(N2CCOCC2)cc1 | 29.4%
10 | CC(=O)N1CCCc2cc(S(=O)(=O)CCC(=O)N3CCN(c4cccc(C)c4)C(C)C3)ccc21 (stereo not shown) | -9.9%
11 | CC(=O)Nc1nonc1-c1nc2ccccc2n1Cc1nnc(C)o1 | -6.37%
12 | Nc1cc(-c2ccc(Cl)cc2)nn1S(=O)(=O)c1ccccc1 | 22.1%
13 | CCCS(=O)(=O)N1CCN(Cc2ccccc2C(F)(F)F)CC1.O=C(O)C(=O)O | -13.9%
14 | COc1cccc(CCC(=O)N2CCC(n3nccc3NC(=O)C3CCOC3)CC2)c1 (stereo not shown) | 14.9%
15 | O=C1CCN(Cc2ccccc2)CCN1[C@H](COc1ccccc1)Cc1ccccc1 | -56.4%
16 | CCn1c(CNc2nc3ccccc3n2C(C)C)nc2ccccc21 | -42.4%
17 | Nc1nc2c(s1)COc1ccccc1-2 | 19.2%
18 | CC1(CCc2ccccc2)NC(=O)N(CC(=O)Nc2ccccc2)C1=O (stereo not shown) | -5.5%
19 | Cc1ccnc(NC(=O)CCNS(=O)(=O)c2ccc(C)c(C)c2)c1 | 3.94%
20 | CCN(CC)CCN1C(=O)c2ccccc2NC1c1ccc(Br)cc1 (stereo not shown) | -85.7%
21 | O=C(COC(=O)c1c2c(nc3ccccc13)CCCCC2)NCc1ccc2c(c1)OCO2 | -9.55%
22 | COc1cccc(NC(=O)c2ccc3snnc3c2)c1 | 6.81%

Row | Compound | hERG current change (%, negative = inhibition) at 10uM
23 | CC1=C(C(=O)Nc2ccc(CC(=O)NCc3ccc(OC(C)C)cc3)cc2)SCCO1 | 14.5%
24 | Cc1cc(C)c(C(=O)COc2cccnc2[N+](=O)[O-])cc1C | -4.15%
25 | COCCCNC(=O)CC1Oc2ccccc2NC1=O (stereo not shown) | 3.05%
26 | Cc1ccc(C)c(N2CCN(C(=O)CNS(=O)(=O)c3cccs3)CC2)c1 | -1.3%
27 | COc1cc(C(=O)O[C@H]2C/C(C)=C/CC[C@@]3(C)O[C@@H]3[C@H](O)[C@@H]2C(C)C)cc(OC)c1OC | 6.22%
28 | O=C(Nc1ccc(Cl)c(Cl)c1)N1CC=CCC1 | 2.3%
29 | Cc1c(C(=O)NCCN2C(=O)S/C(=C\c3cccnc3)C2=O)cccc1[N+](=O)[O-] | -45.1%
30 | CCN(CC)C(=O)COc1ccc2oc(C)c(C(=O)OC(C)C)c2c1 | -4.12%
31 | COC(=O)C1=C(C(=O)OC)[C@@H]2N(C)c3ccc(OC)cc3[C@@]23C[C@@H](C(=O)OC)N(S(=O)(=O)c2ccc([N+](=O)[O-])cc2)C3=N1 | 2.57%
32 | Cc1cc(C)cc(-n2ccnc2SCC(=O)Nc2ccc3c(c2)OCCO3)c1 | -14.2%
33 | COc1ccccc1N1CCN(CCCCOc2cccc3ccccc23)CC1.Cl | -32.8%
34 | CCN(CC)S(=O)(=O)c1ccc(NN)nc1 | 13.4%
35 | CNC(=O)CCSc1ccc(C)cc1 | 24.8%
36 | CN=C(C)/C(C(=O)OC)=C(/O)c1ccccc1F | 3.33%
37 | O=C(c1ccco1)N1CCN(C(=O)c2cnn3c2NC(c2cccs2)CC3C(F)(F)F)CC1 (stereo not shown) | -14%
38 | CCOC(=O)CN(C(=O)COc1nc(C)cc(C)c1C#N)c1ccc(F)cc1 | -44.8%
39 | CC(C)(C)OC(=O)[C@H](Cc1ccccc1)NC(=O)c1[nH]cnc1C(=O)Nc1ccc(Cl)cc1 | 12.7%
40 | O=C(NC(=S)Nc1cccc(Cl)c1)c1cncc(Br)c1 | 10.5%
41 | COc1ccc(NC(=O)CC2C(=O)N(c3ccc(OC)cc3)C(=S)N2NC(=O)c2cccc(F)c2)cc1 (stereo not shown) | 4.58%
42 | CC(=O)Nc1ccc(NC(=O)CSc2nc3c([nH]c4ccccc43)c(=O)n2-c2ccccc2F)cc1 | 16.8%
43 | CCn1c(SCCOc2ccc(OC)cc2)nnc1C(CO)NC(=O)c1ccc(OC)cc1 (stereo not shown) | -14.8%
44 | O=[N+]([O-])c1cc(S(=O)(=O)N2CCCC2)ccc1OCc1ccccc1 | 12.1%

Row | Compound | hERG current change (%, negative = inhibition) at 10uM
45 | CCOc1ccccc1NC(=O)N1CCCN(c2ncccc2C#N)CC1 | -25.9%
46 | CCOc1ccc(-c2nnc(N3CCOCC3)c3ccccc23)cc1 | -69.6%
47 | Cc1ccc(-c2nc(NC(=O)c3nn(C)cc3[N+](=O)[O-])sc2C)cc1C | -9.15%
48 | O=C(O)c1cccc(NC(=S)NC(=O)c2ccncc2)c1 | -2.75%
49 | Nc1nc(N)c(Cc2ccc(Cl)cc2Cl)c(N)n1 | -3.41%
50 | CC(=O)Nc1ccc(S(=O)(=O)Nc2nnc(Cc3ccc(Cl)cc3)s2)cc1 | 20%
51 | Cc1nn(C)c(C)c1CCC(=O)N1CCCC(N2CCN(c3ccc(F)cc3)CC2)C1 (stereo not shown) | -12.5%
52 | O=C(CSc1nnc(-c2ccccn2)o1)Nc1ccccc1F | 10.1%
53 | CC(C)N1C(=S)SC(C)(C)C1n1oc(=O)n(-c2cccc(Cl)c2)c1=O (stereo not shown) | 15%
54 | C=CC1=C(C(=O)O)N2C(=O)C(NC(=O)Cc3ccccc3)C2SC1 (stereo not shown) | 10.6%
55 | Cc1noc(C)c1C(=O)Nc1sc(C)c(C)c1C#N | 15.6%
56 | CN1C(=O)NC(=O)/C(=C/c2ccc([N+](=O)[O-])s2)C1=O | -0.751%
57 | CCCCn1nc2cc(C(=O)NCc3ccc4c(c3)OCO4)ccc2c1OCC | -15.5%
58 | O=C(CCc1ccc(S(=O)(=O)N2CCOCC2)cc1)Nc1nc(COc2ccccc2)cs1 | 5.78%
59 | CCCC(=O)Nc1cccc(NC(=O)c2ccccc2Br)c1 | -9.19%
60 | CC(C)c1ccc(/C=C2\SC(=S)N(CCC(=O)N3CCCCC3CCO)C2=O)cc1 (stereo not shown) | 20.3%
61 | CN(C)c1nc(NCc2ccccc2)nc(SCC(=O)Nc2ccccc2Cl)n1 | -13.4%
62 | C/C(=N\Nc1ccc2nncn2n1)c1ccccn1 | 18.6%
63 | Cc1cc(C(=O)OCC(=O)NCc2ccccc2)c(C)o1 | 6%
64 | CCOC(=O)CN(C(=O)COc1nc(-c2ccccc2)cc(C)c1C#N)c1ccc(F)cc1 | 1.18%
65 | CCCc1cc(=O)[nH]c2nnc(SCC(=O)Nc3cc(C)on3)n12 | 4.97%
66 | O=[N+]([O-])c1ccccc1S(=O)(=O)N(CC(O)CN1CCCCC1)c1ccccc1 (stereo not shown) | -29.9%

Row | Compound | hERG current change (%, negative = inhibition) at 10uM
67 | CCOC(=O)c1ccc2[nH]c3c(c2c1)CCCCC3=O | 9.27%
68 | COc1ccc(CC2(CO)CCN(Cc3cccnc3)CC2)cc1 | -40.3%
69 | Cc1cccn2c(=O)c(/C=C3\SC(=S)NC3=O)c(NCCCN3CCOCC3)nc12 | 4.26%
70 | O=S(=O)(c1ccc(F)cc1)N1CC2CCCN2c2ccc(C(F)(F)F)cc21 (stereo not shown) | 15.1%
71 | CCOc1ccc(C(=O)N(Cc2ccccc2)c2cccc(C)c2)cc1OC | -11.5%
72 | CN(CC1CCCN(CCc2cccc(C(F)(F)F)c2)C1)C(=O)c1ccc2nc[nH]c2c1 (stereo not shown) | -33.1%
73 | COc1c(C(C)C)oc2cc3oc(=O)ccc3cc12 | -17.8%
74 | CCCc1cc(C(=O)Cc2ccc(F)cc2)c(O)cc1O | -7.25%
75 | CC(=O)c1cccc(S(=O)(=O)N2CCC(C(=O)O)CC2)c1 | 23.2%
76 | CCOC(=O)CCn1c(CC(=O)OCC)nc2ccccc21.Cl.O | -39.3%
77 | CCC(=O)c1c[nH]c(C(=O)NCc2cccc(C(F)(F)F)c2)c1 | 12.2%
78 | Cc1ccc(NC(=O)c2c3c(nc4ccccc24)CCC3)cc1S(=O)(=O)N(C)C | 11.5%
79 | CCN(CC)c1ccc(C(=O)Nn2c(C)nc3ccccc3c2=O)cc1 | 14%
80 | Cc1cccc(C)c1NC(=O)CN(C)C(=O)c1ccccc1Sc1ccccc1C#N | -4.76%
81 | O=C(Nc1ccccc1)N1CCN(c2cccc(C(F)(F)F)c2)CC1 | -4.95%
82 | O=C(Nc1ccc(C(F)(F)F)cc1)c1ccc2ncsc2c1 | 0.541%
83 | Cc1ccc(F)cc1NC(=O)CN1C(=O)NC(C)(c2ccc3c(c2)OCCO3)C1=O (stereo not shown) | -0.936%
84 | O=C(Nc1c(Cl)ccc2nsnc12)c1cccnc1 | 9.41%
85 | O=C(OCCc1cc2ccccc2c(=O)o1)c1ccc(C(F)(F)F)cc1 | 10.9%
